Test results from publication PMC7129073 (Clinical Microbiology and Infection, 2015).

Key:
[1] = tested on: U. Urealyticum (UU); conditions: 146 strains
[2] = tested on: M. hominis (MH); conditions: 38 strains

| Structure (SMILES) | number of resistant strains [1] | number of resistant strains [2] [strains] |
| --- | --- | --- |
| CN(C)[C@@H]1C(O)=C(C(N)=O)C(=O)[C@@]2(O)C(O)=C3C(=O)c4c(O)cccc4[C@@](C)(O)[C@H]3C[C@@H]12 [tetracycline] | no strains resistant | 1 |
| CC1COc2c(N3CCN(C)CC3)c(F)cc3c(=O)c(C(=O)O)cn1c23 (stereo not shown) [ofloxacin] | 3 strains | 3 |
